PubChem BioAssay AID485313 (National Center for Advancing Translational Sciences (NCATS), 2010)
Values joined by “and” are separate entries in the source; they are usually repeats but may differ in a detail not shown here. Equal entries are not always repeated. In all, about 320,000 compounds went through this assay and about 7,600 (2.4%) were called active. The shares of active, inactive and inconclusive entries below differ from those in the screen. The call rests on the fitted dose curve; in most records, active means well fitted activation curve with a large enough effect; inconclusive means small, poorly fitted or top-dose-only effect; inactive means no such curve, though single readings can be large or run the other way. Potencies beside an inconclusive call are fits to weak or partial responses and may not hold up.

Assay: qHTS Assay for NPC1 Promoter Activators; further: nearly all actives have a fitted effect of over 60% in size;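 on activation: reporter is driven by a mutant NPC1 promoter; % of control where 0% means no effect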
Conditions: Huh7 NPC1 promoter luciferase reporter, 24 h; series mostly up to 9.22 µM; activation: at the top concentration
Method in brief: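 Compounds in DMSO were transferred onto Huh7 NPC1-luciferase reporter cells pre-incubated 2 h; after 24 h at 37 °C, Amplite reagent was dispensed and luminescence recorded 10 min later.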
Potency means the concentration at half of the fitted maximal effect; tags describe the fitted curve by direction and shape.

activation, inactive:
COC(=O)C1(Cc2cc(-c3cccnc3)no2)CCN(C(=O)OC(C)(C)C)CC1 1%
CCCCC1C(=O)N(c2ccccc2)N(c2ccc(O)cc2)C1=O (stereo not given) -13.6%
Cc1ccc(NC(=O)c2csnn2)c(C)c1 -4.35%
CCN(CC)S(=O)(=O)c1cccc(-c2nnc(SCc3ncc(-c4ccccc4)o3)n2C)c1 -1.09%
Cc1c(C(=O)Nc2ccccc2F)sc2ncn(CC(=O)N3CCCCC3)c(=O)c12 -2.4%
CC(NC(=O)c1ccc(N2CCCC2)c([N+](=O)[O-])c1)c1ccc(S(N)(=O)=O)cc1 (stereo not given) 4.88%
Cc1cc2cc(CNC(=O)Nc3cccc(Cl)c3)ccc2n1C 0.644%
CC(C)(C)c1cc[n+](C2=C([O-])c3ccccc3C(=O)/C2=N\S(=O)(=O)c2ccccc2)cc1 -10.9%
COc1ccc(CCC(=O)Nc2cc(S(C)(=O)=O)ccc2Cl)cc1 1.11%
CN(Cc1ncc[nH]1)C(=O)c1cc(COc2c(F)cccc2F)on1 -3.98%
CCOC(=O)N1CCC(NC(=O)c2cnc3n(c2=O)CCS3)CC1 -12.8%
C=CCN=Cc1c(C)[nH]n(-c2ccccc2)c1=O 29%
COc1ccc(Cl)cc1NC(=O)CN1CCC(n2nnc3cc(C)ccc32)CC1 0.14%
O=C(N/N=C/c1ccc(OCC(=O)N2CCCCC2)cc1)c1ccccc1 1.39%
CC(=O)Nc1ccc(S(=O)(=O)N/N=C/c2cccnc2)cc1 1.67%
C/C=C/C=C/C(=O)N1CC2(CC(c3cccc(NC(=O)CCCCC)c3)=NO2)C[C@H]1C(N)=O (stereo not given in full) -2.71%
S=C(NCC1CC1)N/N=C/c1ccccc1Cl 20.9%
COc1ccc(CNC(=O)CSc2nnc3c(n2)[nH]c2ccc(OC)cc23)cc1 -0.475%

Potency, inconclusive:
Cc1nc(NC(=S)Nc2ccccc2)sc1C 3.55 µM [activator, single point]
FC(F)Oc1ccccc1/C=N/Nc1nc2ccccc2o1 4.47 µM [activator, partial curve]
Cc1cc(O)c(/C=N/Nc2ccccc2Cl)c(=O)o1 3.16 µM [activator, single point]
O=C(NC1CC1)c1ccc(-c2ccccc2)cc1 5.62 µM [activator, single point]
CC(=O)Nc1ccc2cc3ccc(NC(C)=O)cc3nc2c1 4.47 µM [activator, partial curve]
Cc1ccc(C(=O)Nc2cccc(-c3ccc(N4CCOCC4)nn3)c2)cc1C 5.01 µM [activator, single point]
O=C(NCCSc1ccccc1)c1cncc(Br)c1 2.51 µM [activator, partial curve]
Cc1cc(C(=O)COC(=O)c2cccc(O)c2)c(C)n1C1CC1 3.16 µM [activator, single point]
COc1ccccc1CCNC(=O)c1nc(-c2cccs2)no1 3.16 µM [activator, partial curve]
CCCCCCOc1ccc(OCC(O)CN2C(=O)NC(C)(C)C2=O)cc1 (stereo not given) 3.98 µM [activator, partial curve]
O=C1NCCC/C1=N/Nc1cc(F)ccc1F 3.98 µM [activator, partial curve]
O=S(=O)(c1ccc(F)cc1)n1ccc(-c2cnc(-c3ccccc3)s2)n1 5.62 µM [activator, single point]
O=c1oc(-c2cc3ccccc3o2)nc2sc3c(c12)CCCC3 5.01 µM [activator, single point]
CCN1CCc2c(sc3c2c(NCc2ccco2)nc2nnnn23)C1 3.55 µM [activator, single point]
CC(=O)N/N=C\c1ccccc1OC/C=C/c1ccccc1 6.31 µM [activator, single point]
CS(=O)(=O)N1CCN(c2ccc(NC(=O)c3ccc([N+](=O)[O-])o3)cc2)CC1 3.55 µM [activator, partial curve]
Cc1ccsc1/C=N/N1CCN(c2ccccc2)CC1 5.01 µM [activator, single point]
CCCc1ccc(OCc2ccc(C(=O)N3CCN(c4ccccn4)CC3)o2)c(OC)c1 6.31 µM [activator, single point]
CCCCNc1ccc(C(=O)Nc2cccc(C)n2)cc1[N+](=O)[O-] 5.62 µM [activator, single point]
COc1cccc(C(=O)COC(=O)c2cccs2)c1 3.16 µM [activator, single point]
O=C(COc1ccc(Cl)cc1Br)Nc1ccncc1 3.55 µM [activator, single point]
O=C(Cn1nnc(-c2ccc(OCc3ccccc3F)cc2)n1)N1CCOCC1 3.98 µM [activator, partial curve]
COC(=O)Cc1c(OC)ccn(CCc2c[nH]c3ccccc23)c1=O 3.16 µM [activator, partial curve]
COC(=O)c1ccc(N/C=C/C(=O)c2ccccc2)cc1 0.398 µM [activator, full curve]
CN1CCN(c2ccc(-c3cccc(NC(=O)COc4ccc(Cl)cc4Cl)c3)nn2)CC1 1 µM [activator, partial curve]
Cc1c(C(=O)N2CCc3ccccc3C2)oc2ccccc12 6.31 µM [activator, single point]
Cc1ccc(NC(=O)Nc2cccnc2)cc1Cl 3.55 µM [activator, partial curve]
N#C/C(=C\c1ccc(OC(=O)c2ccc(Br)s2)cc1)c1nc2ccccc2[nH]1 5.62 µM [activator, single point]
Cc1ccc(C(=O)N/N=C/c2ccoc2)cc1C 3.55 µM [activator, partial curve]
Cc1ccccc1C(=O)O/N=C(\N)c1ccc([N+](=O)[O-])cc1 5.62 µM [activator, single point]
O=c1nc2c(-c3ccccc3F)n[nH]n2c2ccccc12 2.24 µM [activator, partial curve]
Cc1ccc(SCc2cn3cc(Cl)ccc3n2)cc1 2.82 µM [activator, partial curve]
CCN1CCN(C(=O)c2cc3c(s2)-c2c(C)cccc2OC3)CC1 3.16 µM [activator, partial curve]
CCCn1c(=N)n(CC(=O)c2ccc(Cl)c(Cl)c2)c2ccccc21 2.51 µM [activator, partial curve]
COCCn1c(C)cc(C(=O)COC(=O)c2ccc[nH]c2=O)c1C 2 µM [activator, partial curve]
CN(C)S(=O)(=O)Oc1cccc(C(=O)Nc2ccc(Cl)cc2)c1 0.708 µM [activator, full curve, poor fit]
O=C(COc1ccccc1Cl)Nc1cccnc1 2.82 µM [activator, partial curve]
O=C(O)c1cccc(NC(=S)N/N=C/c2c[nH]c3ccccc23)c1 2 µM [activator, partial curve]
COc1ccc(N2C(=O)c3ccccc3NC2(C)C)cc1 2.82 µM [activator, partial curve]
Cc1cccn2c1nc(=S)n2C(=O)c1ccco1 4.47 µM [activator, single point]
COc1ccccc1-c1cc(C(=O)NC2CCCC2)no1 5.62 µM [activator, single point]
COc1ccc(-c2csc(-c3cccs3)n2)c(OC)c1 3.98 µM [activator, single point]
COc1ccc(NC(=O)c2coc3ccccc23)cc1OC 5.62 µM [activator, single point]
Cc1occc1C(=O)NNC(=S)Nc1ccccc1 1.58 µM [activator, partial curve]
COC(=O)Nc1ccc(OCc2ccccc2)cc1 3.16 µM [activator, partial curve]
CSc1ncccc1C(=O)Nc1ccc(C)cn1 4.47 µM [activator, single point]
Cc1ccc2oc(Nc3nc(C)cc(C)n3)nc2c1 1.12 µM [activator, partial curve]

Potency, active:
N#Cc1ccc(C2N=C(c3ccccc3)NO2)cc1 (stereo not given) 1.26 µM
Cc1nc2ccc(C(=O)Nc3ccccc3Cl)cc2s1 2.51 µM
O=C(Nc1cc2c(cc1Cl)OCCCO2)c1ccco1 3.55 µM
CC(=O)Nc1nc(C)c(-c2csc(Nc3ccccn3)n2)s1 3.98 µM and 3.55 µM
O=C(N/N=C/C(Cl)=C\c1ccccc1)c1cccs1 2.51 µM
O=c1c(-c2cnn(-c3ccccc3)c2)coc2cc(O)ccc12 2.82 µM
CCOC(=O)c1nn(-c2ccc3c(c2)OCO3)cc1O 3.16 µM
CCC(C)(C)c1ccc(Oc2cccc(C(=O)O)c2)cc1 1.78 µM
Cn1c2ccccc2c(=O)c2ccc(C#CC3(N)CCCCC3)cc21 3.98 µM
O=C(Nc1ccc(F)cc1F)c1cc2ccccc2oc1=O 2 µM
